Measurements as given in article PMC6458391, “Deep eutectic solvent for an expeditious sono-synthesis of novel series of bis-quinazolin-4-one derivatives as potential anti-cancer agents” (Royal Society Open Science, 2019).

Test system: normal breast cell line (MCF-10A)
Settings: read-out: IC50 MCF-10A, MTT
Description: From the obtained results, we can conclude that these derivatives might be further used as promising anti-cancer agents.
The experiment was performed in triplicate.

| Compound | IC50 [µM] |
| --- | --- |
| Cc1nc2ccc([N+](=O)[O-])cc2c(=O)n1-c1ccc(-n2c(C)nc3ccc([N+](=O)[O-])cc3c2=O)cc1 [Compound 6e, 3,3′-(1,4-Phenylene)bis(2-methyl-6-nitroquinazolin-4(3H)-one)] | 5.65 ± 2.34 |
| Cc1nc2ccc(F)cc2c(=O)n1-c1ccc(S(=O)(=O)c2ccc(-n3c(C)nc4ccc(F)cc4c3=O)cc2)cc1 [Compound 7d, 3,3′-(Sulfonylbis(4,1-phenylene))bis(6-fluoro-2-methylquinazolin-4(3H)-one)] | 5.98 ± 1.86 |
| Cc1nc2ccc([N+](=O)[O-])cc2c(=O)n1Cc1ccc(Cn2c(C)nc3ccc([N+](=O)[O-])cc3c2=O)cc1 [Compound 4e, 3,3′-(1,4-Phenylenebis(methylene))bis(2-methyl-6-nitroquinazolin-4(3H)-one)] | 5.43 ± 2.46 |
| CNC(=O)c1cc(Oc2ccc(NC(=O)Nc3ccc(Cl)c(C(F)(F)F)c3)cc2)ccn1 [Sorafenib, sorafenib, reference compound] | 5.98 ± 0.49 |
| Cc1nc2ccc([N+](=O)[O-])cc2c(=O)n1-c1ccc(S(=O)(=O)c2ccc(-n3c(C)nc4ccc([N+](=O)[O-])cc4c3=O)cc2)cc1 [Compound 7e, 3,3′-(Sulfonylbis(4,1-phenylene))bis(2-methyl-6-nitroquinazolin-4(3H)-one)] | 7.17 ± 0.76 |
